Source: PubChem BioAssay AID1030 (National Center for Advancing Translational Sciences (NCATS), 2008)
The campaign covered roughly 220,000 compounds. About 16,000 (7.3%) were called active. Inconclusive results, whose numbers are uncertain, are shown with a selection of clear calls. Calls follow the shape of the dose curve; as a rule, active = well fitted inhibition curve with a large enough effect (not every such curve was filed as active); inconclusive = small, poorly fitted or top-dose-only effect, or another doubt; inactive = no such curve, though single readings can be large or run the other way. Potencies of inconclusive entries are doubtful fits and often do not repeat.

The molecules below were run against Aldehyde dehydrogenase 1A1 (Homo sapiens) (UniProt P00352) (assay: qHTS Assay for Inhibitors of Aldehyde Dehydrogenase 1 (ALDH1A1)). Details: Purified ALDH1A1, NADH fluorescence, propionaldehyde substrate; series mostly up to 75.3 µM.
UniProt P00352, sequence (P00352 whole entry, looked up): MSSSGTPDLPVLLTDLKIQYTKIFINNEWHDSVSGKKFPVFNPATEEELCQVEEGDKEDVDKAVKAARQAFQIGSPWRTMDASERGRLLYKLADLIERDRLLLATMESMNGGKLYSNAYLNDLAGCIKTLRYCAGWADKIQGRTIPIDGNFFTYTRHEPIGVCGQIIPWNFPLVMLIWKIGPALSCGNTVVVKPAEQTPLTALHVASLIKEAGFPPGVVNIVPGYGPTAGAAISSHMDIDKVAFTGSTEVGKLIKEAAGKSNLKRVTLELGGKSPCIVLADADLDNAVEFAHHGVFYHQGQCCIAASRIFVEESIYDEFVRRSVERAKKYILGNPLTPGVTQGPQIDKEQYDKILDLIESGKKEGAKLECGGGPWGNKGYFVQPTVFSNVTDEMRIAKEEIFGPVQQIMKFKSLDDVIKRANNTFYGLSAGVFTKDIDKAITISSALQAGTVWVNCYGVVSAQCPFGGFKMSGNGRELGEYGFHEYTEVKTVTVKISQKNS
Potency is read from the fitted curve at half-maximal effect; tags tell the direction and shape of the fitted curve.

Potency, inactive:
NC(=O)N/N=C(/CCCCCC/C(=N\NC(N)=O)c1ccccc1)c1ccccc1, CCOC(=O)c1ccc(N2C(=O)CC(C(=O)OC)=C2C)cc1, O=C(COC(=O)c1ccc(S(=O)(=O)N2CCCC2)cc1)Nc1ccc(N2CCOCC2)cc1, C=CCOC(=O)Nc1c(C(=O)OC)[nH]c2ccccc12, CCOC(=O)Cc1nnc(Nc2cc(C)ccc2C)c2ccccc12, NC(=S)N/N=C/c1ccccc1O, COC(=O)CC1c2ccccc2C=C(C)N1C(=O)OC (configuration not stated), Cc1cc(C)c2oc(C(=O)Nc3ccc(S(=O)(=O)N4CCCC(C)C4)cc3)cc(=O)c2c1 (configuration not stated)

Potency, active:
Fc1ccccc1CSc1ccc(-c2ccco2)nn1 28.2 µM, O=C1C2C3C=CC(C2C(=O)N1CCCO)C1C2C(=O)N(CCCO)C(=O)C2C31 (configuration not stated) 4.47 µM, Cc1ccc(-c2csc(NC(=O)c3cccc(S(=O)(=O)N4CCN(C)CC4)c3)n2)cc1 2.51 µM

Potency, inconclusive:
O=Nc1c2nc3ccccc3n(O)c-2c2ccccc12 12.6 µM [inhibitor, partial curve], Cc1ccn(S(=O)(=O)c2ccc(C(C)(C)C)cc2)n1 14.1 µM [inhibitor, partial curve], O=C(O)c1[nH]c2ccccc2c1-c1ccccc1 37.7 µM [inhibitor, single point], O=C(CN1CCN(c2ccc(F)cc2)CC1)N1CCC(Cc2ccccc2)CC1 28.2 µM [inhibitor, single point], COc1ccc2nc(N3CCC(O)CC3)c(C#N)cc2c1 28.2 µM [inhibitor, partial curve], CC(C)NC(=S)N/N=C1\CCCc2ccccc21 0.316 µM [inhibitor, single point], Cc1ccc(Oc2nc(CN3CCOCC3)nc3sc4c(c23)CCC(C)C4)cc1C (configuration not stated) 22.4 µM [inhibitor, partial curve], CC1Cc2ccccc2N1C(=O)CSc1nnc(C2CC2)n1C (configuration not stated) 39.8 µM [inhibitor, single point], NNC(=O)c1cc2c(N3CCC(Cc4ccccc4)CC3)ncnc2s1 15.8 µM [inhibitor, partial curve], CCCC(=O)Nc1ccc2oc(-c3cccnc3)nc2c1 28.2 µM [inhibitor, partial curve], Cc1cccn2c(=O)c3cc(C(=O)NCc4ccco4)c(=N)n(C(C)C)c3nc12 25.1 µM [inhibitor, partial curve]
